The whole screen tested about 4,800 compounds, of which about 410 (8.5%) showed an effect of 50% or more. The list shows a part of the results.
tested on: Plasmodium falciparum; test: Confirmatory screen in NF54 pLDH assay, in single point, at 2uM, 72h; assay type: functional, Erythrocyte; conditions: timepoint 72 hour

Structure (SMILES) | % Inhibition [%]
Cc1nc(Cc2nc(O)cs2)sc1C | -13
CC(C)(C)NC(=O)CCc1ccccc1 | -1
Cc1nc([C@@H]2CCCN2c2nc(C3CCCC3)ns2)no1 | -16
Cc1ccc(-n2c(=O)c3ccccc3n(CC(=O)NCc3cccnc3)c2=O)cc1Cl | -19
CCN(CC)CCN(C(=O)C1CCN(S(=O)(=O)c2ccc(Cl)cc2)CC1)c1nc2c(C)ccc(Cl)c2s1 | -6
Cc1c[nH]c(=O)n1-c1ccc(C(=O)NCCc2cc(F)cc(F)c2)cc1 | 10
Cc1ccc(CN2CCS(=O)(=O)CC2)o1 | -13
Cc1ccc(NC(=O)N2CCC(C(NC(=O)c3ccccc3)C(=O)N3CCCCC3C)CC2)cc1 (configuration not stated) | -7
N#Cc1ccc(S(=O)(=O)N2C3CCC2CC(O)C3)o1 (configuration not stated) | -10
COc1ccc(CNC(=O)c2ccc(Cl)c(-n3c(C)nc4cccnc43)c2)c(OC)c1 | 14
O=C1C2C3C=CC(C3=C(c3ccccc3)c3ccccc3)C2C(=O)N1CCO (configuration not stated) | -12
COc1ccc(-c2cc3c(N4CCN(Cc5ccc6c(c5)OCO6)CC4)nccn3n2)cc1OC | -2
Cc1nc(COc2nc(C(C)(C)C)no2)cs1 | -18
CC1(C)CC2=CC3(C)CC(C)(C)CC4(C3)C2=C(C1)N(c1ccccc1)C(=O)N4C(=O)c1ccccc1 (configuration not stated) | -15
Cc1nn(C)cc1C1C(C(=O)Nc2ccccc2)C(=O)CC(C)(O)C1C(=O)Nc1ccccc1 (configuration not stated) | 3
C[C@H](Oc1ccc(F)cc1)C(=O)N1CCC(c2nc3cc(Cl)ccc3s2)CC1 | -1
NC(=O)c1ccc(C(F)(F)F)n(C[C@H](O)c2cc(Cl)ccc2Cl)c1=O | 60
Cc1nnc(COC(=O)c2cc3ccc(C(C)(C)C)cc3[nH]2)o1 | 11
COc1ccccc1-n1cnc2cc(C(=O)N3CCCC3)ccc2c1=O | -5
CC(O)CC(C)(C)CNC1CCCc2occc21 (configuration not stated) | -9
Cc1cc(Cn2c(=O)n(Cc3ccccc3)c3ccncc32)on1 | 7
CN1CC(c2ccccc2Cl)C2(COc3ccccc3C2=O)C12C(=O)Nc1ccccc12 (configuration not stated) | 14
C[C@H]1Cc2cc(C(=O)NCc3nc(C(F)(F)F)n[nH]3)ccc2O1 | 10
O=S(=O)(Nc1cccc(-c2nnc3n2CCC3)c1)c1ccc2c(c1)OCCCO2 | -8
O=c1[nH]c(N2CCCC2)nc2ccccc12 | -1

Structure (SMILES) | % Inhibition [%]
Cc1ccc(Oc2cc(C#N)c(C#N)cc2N2CCOCC2)cc1C | -9
CC[n+]1ccc(-c2ncc(-c3ccc(C(C)(C)C)cc3)o2)cc1 | 55
CC(C)(C)NC(=O)c1ncc(Br)cc1Br | 5
COc1ccc(NC(=O)Cn2c(C(F)(F)F)nc3cc4c(cc32)OCCCO4)cc1 | 10
Nc1c(Br)cc(Br)c(Cl)c1Cl | -15
NC(=O)c1ccc(COc2ccc3c(c2)CCC3=O)cc1 | 13
Cc1cc(S(=O)(=O)NC(=O)c2ccnc(C3CCCC3)n2)c(C)s1 | 0
CC(C)(C)[C@H]1CCc2c(sc(NC(=O)C3(F)C(F)(F)C(F)(F)C(F)(F)C(F)(F)C3(F)F)c2C#N)C1 | 51
COCc1nsc(N2CCC(c3ccccc3)CC2C)n1 (configuration not stated) | 6
O=C(C1CCN(c2cncc3nnnn23)CC1)N1CCC(c2ccccc2)CC1 | 7
N#CC1(CNC(=O)CNC(=O)C2C3CCCCC32)CC1 (configuration not stated) | 6
O=c1[nH]c2nc(N3CCC(N4CCCCC4)CC3)ncc2c(=O)n1-c1ccc2c(c1)OCO2 | -18
CCc1ccc2ncc(C(=O)c3ccc(Cl)cc3)c(O)c2c1 | 1
COc1cccc(S(=O)(=O)N2CCC(OCCOCc3ccccc3)CC2)c1 | 10
CCN(C(=O)[C@H]1CCN(C)[C@@H](C)C1)C1CCCC1 | 11
OC1CCC2CN(c3ncc(Cl)c(N4CC5CCC(O)C5C4)n3)CC12 (configuration not stated) | 4
CCc1nnc2ccc(S(=O)(=O)Nc3cc(F)cc(F)c3)cn12 | -5
CC(=O)Nc1ccc(-c2cn3c4ccccc4ccc3[n+]2C)cc1 | 67
CC(C)(C)OC(=O)N1CCc2ncn(Cc3ccc(F)cc3)c(=O)c2C1 | -2
O=C(Nc1nccs1)N1CC(O)CC1CO (configuration not stated) | -11
Cc1c(-c2ccccc2OC(=O)c2ccccc2)cnn1-c1ccccc1 | 2
CC[C@@H](CO)NC(=O)Nc1ccc(Cl)cc1 | 7
CN(C)CCN(C)c1ccc(Br)cc1NCc1cncn1C | 39
CS(=O)(=O)N1CC[C@H](CC(=O)Nc2ccccc2)C1 | -11
CCCN1CCN(CC(=O)Nc2sccc2C#N)c2cc(F)ccc21 | 12

Structure (SMILES) | % Inhibition [%]
CCOC(=O)CCn1cc(F)c(=O)[nH]c1=O | 66
Cc1cccc(NC(=O)C(=O)N(C)[C@H]2CCCc3c2cnn3C)c1F | -12
Cc1ccc(S(=O)(=O)N2CCN(C(=O)c3cc(C4CC4)nc4c3c(C)nn4C(C)C)CC2)cc1 | 13
Cc1ccccc1CNC(=O)[C@H]1CCCN(c2nc3ccccc3[nH]c2=O)C1 | 13
COc1ccc(CC(=O)N2N=C(C)C[C@]2(O)c2cccnc2)cc1 | 2
CC(CNC(=O)NCC(O)C1CC1)c1ccc(F)c(F)c1 (configuration not stated) | 10
CCS(=O)(=O)N1CCN(c2c(C)n(-c3ccccc3)c(=O)n(C)c2=O)CC1 | 6
Cc1ccc(-c2c[n+](-c3ccc(OC(F)F)cc3)c3n2CCCCC3)cc1 | 60
CC(C)N(CC(=O)Nc1nccs1)Cc1ccccn1 | 59
O=S(=O)(c1ccc(Br)cc1)n1ccc(C2CC2)n1 | 8
COc1ccc(S(=O)(=O)Nc2c(C)ccc3nsnc23)cc1OC | 9
CC1(C)CCC[C@@H]1NCc1nccc(N)n1 | 9
C[n+]1ccc(-c2ncc(-c3ccccc3)o2)c2ccccc21 | 62
CN(Cc1ccccc1)C(=O)C[C@H]1CCN(C(=O)NC2CCCC2)C1 | 2
O=C(O)C1CC=CCC1C(=O)N1CCCCCC1 (configuration not stated) | 10
CC(C)N(C)S(=O)(=O)Nc1ccc(Br)cc1O | 9
O=C(c1cc(-c2ccco2)n[nH]1)N1CCC(N2CCC(Oc3ccccc3F)CC2)CC1 | 45
O=C(Cc1c[nH]c2ccccc12)Nc1ccc(Cl)c2ncccc12 | 6
CC[C@](C)(NCCc1c[nH]c2ccccc12)c1nnnn1CCOC | 13
CCC1CN2CCCC2CN1C(=O)Nc1nc2ccccc2s1 (configuration not stated) | 6
O=C(Nc1ccc(N2CCn3c(nc4ccccc43)C2)cc1)c1ccc(F)cc1 | 14
Cn1c(N2CCC[C@H]2c2ccc3c(c2)OCCCO3)c(C#N)c(=O)n(C)c1=O | 8
Cc1ccc(C)c(-n2cnc(=O)n2[C@H]2CCN(C3CC3)C2=O)c1 | 51
CC1CN(c2nc(-c3ccccc3)nnc2-c2ccccc2)CC(C)O1 (configuration not stated) | 9
Cc1cc(C)c(C)c(S(=O)(=O)N2CCn3c(nnc3[C@H]3CCN(C(C)C)C3)C2)c1C | 12

Structure (SMILES) | % Inhibition [%]
CCCNCc1cc(Cl)ccc1OC | -6
CCS(=O)(=O)c1ccc(N2CC[C@H](C(N)=O)C2)cc1 | 3
Cc1cccc(CNc2cc([C@H]3C[C@@H](N)C3)nc(N3CCCC3)n2)c1 | 14
COc1ccccc1N(CC(=O)NCCN1CCOCC1)S(=O)(=O)c1ccc(C)cc1 | 7
CN(C)c1cccc(C(=O)N2CCN(c3ncc(F)cn3)C(=O)C2)c1 | 10
CCc1c(C)nn(-c2nncn2N)c1C | -2
CCOC(=O)c1cn([C@H]2CC(=O)N(c3ccccc3)C2=O)nn1 | 10
Cc1nc2ccnn2cc1C(=O)Nc1ccc(CCC(C)C)cn1 | 6
CCc1ccc(O[C@@H](C)C(=O)OC)c(COc2ccc(-n3c(=O)cc(C(F)(F)F)n(C)c3=O)cc2)c1 | 12
O=C(NCCN1CCCCC1)c1n[nH]c2c1CCc1ccccc1-2 | 5
CNC(=O)[C@@H](NC(=O)CNC(=O)c1ccc(Cl)cc1)C(C)(C)C | 7
COc1ccccc1OCC(=O)Nc1ccccc1-n1cnnc1C | 12
Cc1nc2cc(-c3ccc(Cl)c(Cl)c3)nn2c(N)c1-c1ccccc1 | 0
CN(C(=O)C(C)(C)Nc1ncc(C(F)(F)F)cc1Cl)c1ccc(Cl)cc1 | 14
c1cc(-c2noc(C3CC3)n2)nc(N2CCNCC2)n1 | -4
Cc1oc(=S)n2c1C[C@@H](c1ccccc1)N(Cc1ccccc1)C2 | -10
COc1cccc(CC(=O)N2CCC[C@@]3(C2)Nc2ccccc2N=C3NC(C)(C)C)c1 | -15
CC[C@H]1Cn2c(C(=O)NCc3ccc(C)cc3)cc3c(Cl)ccc(c32)O1 | -8
Cc1nnc2ccc(S(=O)(=O)N(CC#N)c3ccccc3)cn12 | 10
C[C@@]1(C(=O)NCc2ccccc2)Cn2nc(-c3ccccc3)cc2C(=O)N1c1ccc2c(c1)OCCO2 | 36
CCc1sc(NC(=O)CC#N)nc1-c1ccc(Cc2ccccc2)cc1 | -4
CCC(=O)N1CC[C@H](N(C(C)=O)C2CCOCC2)C1 | -11

Source: ChEMBL document CHEMBL4888484, “Replenishing the malaria drug discovery pipeline: Screening and hit evaluation of the MMV Hit Generation Library 1 (HGL1) against asexual blood stage Plasmodium falciparum ,using a nano luciferase reporter read-out” (2022)
